Laboratory results as given in paper PMC6212790.
The list shows a part of the results. At the low end of the ranking the order means little.
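Note: rank score from −0.5 (least bound) to 0.5 (best bound).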

Each sequence was assayed against T1, GST-Rok (full length) (UniProt O34857) (assay: protein binding microarray). Settings: Rok is a gene silencer of Bacillus subtilis; high values mean tight binding; most listed sequences are background and not binding sites; double strand, one strand shown.
T1 sequence: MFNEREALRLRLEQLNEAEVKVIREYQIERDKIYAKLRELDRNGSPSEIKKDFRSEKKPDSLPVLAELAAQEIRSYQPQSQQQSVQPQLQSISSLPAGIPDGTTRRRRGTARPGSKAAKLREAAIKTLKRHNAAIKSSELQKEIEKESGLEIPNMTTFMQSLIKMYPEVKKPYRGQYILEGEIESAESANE
Work on CTTGACGA yielded a binding signal of -0.11 E-score.
For ACAAAAAG, the binding signal was -0.0244 E-score.
For AAAATTTT, the binding signal was 0.153 E-score.
GGACATAA gave a binding signal of 0.174 E-score.
In the case of TCCAGCGA, the binding signal is reported as -0.0896 E-score.
Work on CCCAGGGA yielded a binding signal of -0.307 E-score.
CAGTATGA gave a binding signal of 0.154 E-score.
Work on AAGCACTA yielded a binding signal of 0.024 E-score.
CAAGCCTC was tested, and the binding signal was -0.141 E-score.
In the case of CCATCTAG, the binding signal is reported as -0.0113 E-score.
ACTTGTGC gave a binding signal of 0.0615 E-score.
AGCGTCAG showed a binding signal of -0.211 E-score.
CACGCGTG was tested, and the binding signal was 0.0928 E-score.
GCTAGGCC showed a binding signal of -0.245 E-score.
With CCATCCCC the binding signal was -0.223 E-score.
GCAGTCGA gave a binding signal of -0.234 E-score.
ACTAAAAT was tested, and the binding signal was 0.406 E-score.
AGTCAGTC showed a binding signal of -0.122 E-score.
Sequence GGCCCGGA has a binding signal of -0.457 E-score.
With AAGTTCAT the binding signal was 0.147 E-score.
Sequence TCATTTCA has a binding signal of 0.0488 E-score.
Sequence AGCACAAC has a binding signal of -0.0101 E-score.
Work on CAATCTAG yielded a binding signal of 0.285 E-score.
With ATAACGCG the binding signal was 0.134 E-score.
GCTTCGAA gave a binding signal of -0.000456 E-score.
Sequence CTGATGAA has a binding signal of -0.0189 E-score.
AGGCTTAA gave a binding signal of -0.159 E-score.
With GGTCGAAA the binding signal was 0.0161 E-score.
For CCGATAGG, the binding signal was 0.0382 E-score.
AGCATGCA was tested, and the binding signal was -0.128 E-score.
Work on CAATTCAG yielded a binding signal of -0.00579 E-score.
ATGGTCCC gave a binding signal of -0.109 E-score.
CAATCCCA showed a binding signal of -0.0104 E-score.
For CTACAAAC, the binding signal was 0.242 E-score.
CAATTCGG gave a binding signal of 0.0151 E-score.
With ATACTCGC the binding signal was 0.0576 E-score.
Sequence ACTGCATA has a binding signal of 0.297 E-score.
With CCCCTTTC the binding signal was -0.253 E-score.
In the case of TAACTCTA, the binding signal is reported as 0.19 E-score.
CGATAATC was tested, and the binding signal was 0.159 E-score.
TCCAACAA gave a binding signal of -0.0731 E-score.
With AACGTTTG the binding signal was 0.124 E-score.
With AAAAGTCC the binding signal was -0.105 E-score.
For AAAACGTT, the binding signal was 0.054 E-score.
CTAGACGC showed a binding signal of -0.135 E-score.
GGATTGTA gave a binding signal of 0.185 E-score.
For TCTCTACA, the binding signal was 0.0813 E-score.
TACGATCA gave a binding signal of 0.0131 E-score.
Sequence ACTGCGAC has a binding signal of -0.0623 E-score.
AGTCTAAG gave a binding signal of -0.0824 E-score.
For AGATTGGC, the binding signal was 0.136 E-score.
ACTTCGGA showed a binding signal of -0.0792 E-score.
For ATTGTGAA, the binding signal was 0.0587 E-score.
In the case of ATAAAACA, the binding signal is reported as 0.129 E-score.
GAATTAGA was tested, and the binding signal was 0.00787 E-score.
With GGCTAACC the binding signal was -0.335 E-score.
In the case of ACGCGTAG, the binding signal is reported as 0.116 E-score.
For AGGACCAA, the binding signal was -0.0173 E-score.
GAATCCAC gave a binding signal of -0.0886 E-score.
Work on ATGCGAGA yielded a binding signal of 0.00939 E-score.
AACTTACT gave a binding signal of 0.222 E-score.
CTTCTTAA showed a binding signal of -0.0137 E-score.
With CCCTGGGA the binding signal was -0.103 E-score.
In the case of GCGTTTCA, the binding signal is reported as -0.175 E-score.
GCCCAACA was tested, and the binding signal was -0.0691 E-score.
TACCAGAA showed a binding signal of 0.0741 E-score.
With ACGAGCCA the binding signal was -0.0725 E-score.
With AACGTCAT the binding signal was 0.00721 E-score.
AAGAGAAC was tested, and the binding signal was -0.0681 E-score.
Work on ATCGCCCA yielded a binding signal of -0.0827 E-score.
Work on TACCTAGA yielded a binding signal of 0.233 E-score.
AGGGATGA was tested, and the binding signal was -0.0335 E-score.
ACTACTTC gave a binding signal of 0.193 E-score.
AATCTATC showed a binding signal of 0.377 E-score.
AGATCATG gave a binding signal of 0.089 E-score.
ATATCTTA showed a binding signal of 0.262 E-score.
CAGACTGC gave a binding signal of -0.298 E-score.
CAAATTGC was tested, and the binding signal was -0.00859 E-score.
With AGGATTGC the binding signal was -0.00775 E-score.
Sequence GGGAGATA has a binding signal of 0.0382 E-score.
Work on AAGATCCG yielded a binding signal of -0.125 E-score.
In the case of GGATTACA, the binding signal is reported as 0.0462 E-score.
CGCTGCCC gave a binding signal of -0.189 E-score.
Work on CTACTACA yielded a binding signal of 0.339 E-score.
TTACGGAA gave a binding signal of 0.127 E-score.
AAGGACAC showed a binding signal of -0.165 E-score.
In the case of GCATATCC, the binding signal is reported as -0.164 E-score.
With GGATCAGA the binding signal was -0.0818 E-score.
Work on AATTGGGT yielded a binding signal of 0.116 E-score.
Work on ATGCGCGC yielded a binding signal of 0.0747 E-score.
For CGATGGAC, the binding signal was 0.0478 E-score.
Work on CTCGAGCC yielded a binding signal of -0.175 E-score.
GAGATAAA showed a binding signal of -0.00816 E-score.
ACCCGGAT was tested, and the binding signal was -0.224 E-score.
TACACATA showed a binding signal of 0.315 E-score.
For CAGCTGGC, the binding signal was -0.222 E-score.
ATTAAACC gave a binding signal of 0.0133 E-score.
In the case of CTACAGTC, the binding signal is reported as 0.187 E-score.
ACTAGCCA gave a binding signal of 0.0883 E-score.
CCATGGAG was tested, and the binding signal was -0.0194 E-score.
ATTAGGCG showed a binding signal of 0.0082 E-score.
AGACAGTC was tested, and the binding signal was -0.145 E-score.
Sequence CACAACGA has a binding signal of 0.104 E-score.
ACCCAAGC gave a binding signal of -0.172 E-score.
Work on CACCCAAC yielded a binding signal of -0.0294 E-score.
For CCCAATCC, the binding signal was -0.278 E-score.
CCAGTGAA gave a binding signal of -0.0951 E-score.
For CCTTTGTA, the binding signal was 0.207 E-score.
For ACGTGAAT, the binding signal was 0.195 E-score.
GCGCTCAC gave a binding signal of -0.248 E-score.
Work on AGTTAACT yielded a binding signal of 0.256 E-score.
ATTTAGCA showed a binding signal of 0.23 E-score.
With ACGGACCT the binding signal was -0.387 E-score.
ATGGGCGA showed a binding signal of -0.266 E-score.
With CGATGCCA the binding signal was -0.254 E-score.
CAGCCCCC showed a binding signal of -0.49 E-score.
GCGGCGGA gave a binding signal of -0.29 E-score.
AGTTACTG gave a binding signal of 0.207 E-score.
With ATGCACGG the binding signal was 0.147 E-score.
In the case of GGTTCGAA, the binding signal is reported as -0.0631 E-score.
ACCTACAT showed a binding signal of 0.271 E-score.
TATGGCCA gave a binding signal of 0.0208 E-score.
For CCAGCGGA, the binding signal was -0.204 E-score.
Work on TTGAGAAA yielded a binding signal of 0.146 E-score.
CACGCGGA gave a binding signal of 0.0379 E-score.
Work on CGCCTTCA yielded a binding signal of 0.0118 E-score.
Work on CACTCGTA yielded a binding signal of 0.134 E-score.
CATCTGCG showed a binding signal of -0.15 E-score.
With AAGACTCT the binding signal was -0.0697 E-score.
With CTACTAGC the binding signal was 0.232 E-score.
Work on ATAAAGTC yielded a binding signal of -0.00136 E-score.
With ATAGGCTG the binding signal was 0.0136 E-score.
GGTATAAC showed a binding signal of 0.313 E-score.
Work on GACTGGGC yielded a binding signal of -0.371 E-score.
GCATCACC was tested, and the binding signal was -0.0482 E-score.
CCGTGACG showed a binding signal of 0.0126 E-score.
CTACATCC gave a binding signal of 0.0773 E-score.
ATACCGGA gave a binding signal of -0.147 E-score.
For AACTCAGG, the binding signal was 0.0467 E-score.
For ACCTCTGA, the binding signal was 0.0407 E-score.
Work on CGGGTACA yielded a binding signal of 0.154 E-score.
GCTTAAGA showed a binding signal of -0.025 E-score.
In the case of ACTACCCC, the binding signal is reported as 0.166 E-score.
With ACAAGAGG the binding signal was -0.162 E-score.
ACCCACCG showed a binding signal of -0.179 E-score.
For CTCATCCC, the binding signal was -0.408 E-score.
In the case of GACCTGTA, the binding signal is reported as -0.234 E-score.
ACGAAAAT showed a binding signal of 0.231 E-score.
In the case of TGACCGAA, the binding signal is reported as 0.0795 E-score.
For CAGGGAAC, the binding signal was -0.0781 E-score.
ATACCACC was tested, and the binding signal was 0.127 E-score.
With TATCAGCA the binding signal was 0.0489 E-score.
ACCCGGCA showed a binding signal of -0.208 E-score.
With ATCCGTTC the binding signal was -0.0558 E-score.
For CGTTACGA, the binding signal was 0.195 E-score.
In the case of TCCGACAA, the binding signal is reported as -0.0727 E-score.
TAGCGCCA was tested, and the binding signal was 0.0857 E-score.
For AGTCTCAG, the binding signal was -0.0863 E-score.
For ATTAAAAT, the binding signal was 0.262 E-score.
Work on CCCCTCAG yielded a binding signal of -0.462 E-score.
Work on ATCACGAA yielded a binding signal of 0.125 E-score.
Work on AACAATTA yielded a binding signal of 0.32 E-score.
CTCCATTA showed a binding signal of 0.0996 E-score.
CCCCGGGG gave a binding signal of -0.495 E-score.
In the case of GATCTGTA, the binding signal is reported as 0.034 E-score.
With TAGGGTCA the binding signal was 0.0186 E-score.
For ATTCTCCC, the binding signal was -0.0412 E-score.
With CCTGCACA the binding signal was -0.213 E-score.
In the case of GGCTCTTA, the binding signal is reported as -0.257 E-score.
In the case of ACTCTTAC, the binding signal is reported as 0.06 E-score.
CGCAGGAG gave a binding signal of -0.164 E-score.
With ACGGGTTG the binding signal was -0.231 E-score.
ACTAACGC gave a binding signal of 0.212 E-score.
With GATAACCA the binding signal was -0.0372 E-score.
